Data from US20030180349A1, “Respiratory infection prevention and treatment with terpene-containing compositions” (priority 2001, published 2003).

Tested on: E. coli strain AW574
Conditions: single terpene 2 μMol; bacterial growth compared to control, 24 hours

Compound | % growth
CC(=O)/C=C/C1=C(C)CCCC1(C)C [b-ionone] | 84.00%
C=C(C)C1CC=C(C)C(=O)C1 (stereo not drawn) [Carvone] | 63.00%
CC(C)=CCC/C(C)=C/CO [Geraniol] | 54.00%
